# According to the supplement of paper PMC8728848:
# This is one part of the list.
# Key:
# Assay in all cases: glycan array binding signal (z-score within array); higher = stronger binding
# Settings in all cases: glycan notation: IUPAC condensed, linker removed
# [1] = target: Neu5Gc(a2-8)Neu5Gc(a2-3)Gal(b1-4)GlcNAc(b1-3)Gal(b1-4)GlcNAc
# Summary of the method: (§1)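 Glycan array data came from 3228 arrays in the Consortium for Functional Glycomics database, and only arrays with an available protein sequence were kept. Glycan names were put into IUPAC-condensed notation, and columns mapping to the same glycan were averaged. The binding signal is a within-array Z-score, averaged across arrays of one protein sequence run at different concentrations or buffers and across linkers. A negative Z-score can be read as non-binding.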
# [2] = target: Neu5Gc(a2-8)Neu5Gc(a2-6)Gal(b1-4)GlcNAc
# Summary of the method: as §1
# [3] = target: Neu5Gc(b2-6)Gal(b1-4)GlcNAc
# Summary of the method: as §1
binder,measurement,setting,value
"Als1 (Candida albicans), P46590 (protein) KTITGVFDSFNSLTWSNAANYAFKGPGYPTWNAVLGWSLDGTSANPGDTFTLNMPCVFKYTTSQTSVDLTADGVKYATCQFYSGEEFTTFSTLTCTVNDALKSSIKAFGTVTLPIAFNVGGTGSSTDLEDSKCFTAGTNTVTFNDGDKDISIDVEFEKSTVDPSGYLYASRVMPSLNKVTTLFVAPQCENGYTSGTMGFSSSNGDVAIDCSNIHIGITKGLNDWNYPVSSESFSYTKTCTSNGIQIKYQNVPAGYRPFIDAYISATDVNQYTLAYTNDYTCAGSRLQSKPFTLRWTGYKNSDAGSNGIVIVATTRTVTDSTTAVTTLPFNPSVDKTKTIEILQPIPTTTITTSYVGVTTSYLTKTAPIGETATVIVDVPYHTTTTVTSEWTGTITTTTTRTNPTDSIDTVVVQVP",glycan array binding signal (z-score),[1],0.407
same,glycan array binding signal (z-score),[2],0.851
same,glycan array binding signal (z-score),[3],0.473
